The other results are listed elsewhere or left out. Bounds are passed on as bounds.

Sequences and labels used below:
B1: PhoQ; a variant is named by its letters at X, in order, P23837 (parent)
chain: MKKLLRLFFPLSLRVRFLLATAAVVLVLSLAYGMVALIGYSVSFDKTTFRLLRGESNLFYTLAKWENNKLHVELPENIDKQSPTMTLIYDENGQLLWAQRDVPWLMKMIQPDWLKSNGFHEIEADVNDTSLLLSGDHSIQQQLQEVREDDDDAEMTHSVAVNVYPATSRMPKLTIVVVDTIPVELKSSYMVWSWFIYVLSANLLLVIPLLWVAAWWSLRPIEALAKEVRELEEHNRELLNPATTRELTSLVRNLNRLLKSERERYDKYRTTLTDLTHSLKTPLXXLQXXLRSLRSEKMSVSDAEPVMLEQISRISQQIGYYLHRASMRGGTLLSRELHPVAPLLDNLTSALNKVYQRKGVNISLDISPEISFVGEQNDFVEVMGNVLDNACKYCLEFVEISARQTDEHLYIVVEDDGPGIPLSKREVIFDRGQRVDTLRPGQGVGLAVAREITEQYEGKIVAGESMLGGARMEVIFGRQHSAPKDE

The assay covers variants of B1. The experiment in a line: enrichment ratio after two sorts for PhoP signalling (ratio (wild type AVST 3.29)); higher = more functional. The note with it: with PhoP (E. coli).
For HNSC, the enrichment ratio is no more than 0.25.

RKYT: the enrichment ratio is no more than 0.25.

As for TYST, the enrichment ratio was 2.83.

MVLQ: the enrichment ratio was determined as 7.13.

For the variant KCVS, the enrichment ratio is no more than 0.25.

Take AISI: the enrichment ratio is 22.

For PYWI, the enrichment ratio turned out to be 5.43.

Turning to NSFN, the enrichment ratio is no more than 0.25.

With SDKF, the enrichment ratio was no more than 0.25.

For KFSY, the enrichment ratio is no more than 0.25.

For the variant FMAI, the enrichment ratio is no more than 0.25.

Turning to PSPK, the enrichment ratio was no more than 0.25.

In the case of GTPI, the enrichment ratio is no more than 0.25.

Take GWDL: the enrichment ratio is no more than 0.25.

Turning to PQWC, the enrichment ratio is no more than 0.25.

On to IWNK, for which the enrichment ratio is no more than 0.25.

LAPT: the enrichment ratio was no more than 0.25.

Regarding KLRI, the enrichment ratio was no more than 0.25.

Turning to LAGF, the enrichment ratio is no more than 0.25.

Regarding RSYF, the enrichment ratio is no more than 0.25.

Turning to DLIW, the enrichment ratio is no more than 0.25.

Turning to DDHN, the enrichment ratio was no more than 0.25.

Regarding IIIW, the enrichment ratio was no more than 0.25.

Regarding MYTY, the enrichment ratio was no more than 0.25.

As for SGGA, the enrichment ratio was determined as 8.12.

For MWWT, the enrichment ratio is no more than 0.25.

In the case of NCSA, the enrichment ratio was no more than 0.25.

With PFTM, the enrichment ratio is no more than 0.25.

Regarding PPCA, the enrichment ratio was no more than 0.25.

In the case of YFHY, the enrichment ratio is no more than 0.25.

Regarding GLVT, the enrichment ratio is no more than 0.25.

With QFCG, the enrichment ratio was no more than 0.25.

In the case of IPGI, the enrichment ratio was no more than 0.25.

On to DLLP, for which the enrichment ratio is no more than 0.25.

Consider LAVL, for which the enrichment ratio is no more than 0.25.

For KYTL, the enrichment ratio was no more than 0.25.

Regarding IETL, the enrichment ratio was no more than 0.25.

On to YMMN, for which the enrichment ratio is no more than 0.25.

Turning to MAHP, the enrichment ratio was no more than 0.25.

As to FPQS, the enrichment ratio is no more than 0.25.

With KCPC, the enrichment ratio is no more than 0.25.

As to QDMC, the enrichment ratio is no more than 0.25.

Consider AQKI, for which the enrichment ratio was no more than 0.25.

As to LVLE, the enrichment ratio was no more than 0.25.

Take ASCN: the enrichment ratio was 15.3.

HQVC: the enrichment ratio was no more than 0.25.

Turning to WKET, the enrichment ratio was no more than 0.25.

On to QTIY, for which the enrichment ratio was no more than 0.25.

As to WQIA, the enrichment ratio is no more than 0.25.

Turning to LFYQ, the enrichment ratio is no more than 0.25.

For RCTT, the enrichment ratio is no more than 0.25.

For VNIV, the enrichment ratio is no more than 0.25.

With DCHP, the enrichment ratio was no more than 0.25.

Turning to VNTG, the enrichment ratio is no more than 0.25.

Regarding EPHY, the enrichment ratio was no more than 0.25.

For TDIG, the enrichment ratio came out at 2.81.

In the case of AKMA, the enrichment ratio is no more than 0.25.

Turning to FGPW, the enrichment ratio was no more than 0.25.

Take HPTC: the enrichment ratio was no more than 0.25.

As to HLAK, the enrichment ratio was no more than 0.25.

As to AYTN, the enrichment ratio was no more than 0.25.

With YQME, the enrichment ratio was no more than 0.25.

As for DISF, the enrichment ratio is no more than 0.25.

On to YWYV, for which the enrichment ratio was no more than 0.25.

Consider ITHI, for which the enrichment ratio was no more than 0.25.

With WTND, the enrichment ratio was no more than 0.25.

As to LGLC, the enrichment ratio is 0.714.

On to PWKC, for which the enrichment ratio was no more than 0.25.

For the variant FPKN, the enrichment ratio was no more than 0.25.

As to LPAH, the enrichment ratio was no more than 0.25.

For MGYI, the enrichment ratio is 13.6.

Regarding HHCY, the enrichment ratio was no more than 0.25.

For VGYE, the enrichment ratio is no more than 0.25.

Consider KDFL, for which the enrichment ratio is no more than 0.25.

Turning to GWAW, the enrichment ratio is no more than 0.25.

Regarding IQNS, the enrichment ratio is no more than 0.25.

As for KDKL, the enrichment ratio is no more than 0.25.

Take RVSR: the enrichment ratio was no more than 0.25.

As for NCGG, the enrichment ratio was no more than 0.25.

For VPIG, the enrichment ratio is no more than 0.25.

Regarding SYDN, the enrichment ratio was no more than 0.25.

As to FVCD, the enrichment ratio was no more than 0.25.

On to AYCA, for which the enrichment ratio is no more than 0.25.

Regarding TGYA, the enrichment ratio is 5.15.

For WRVK, the enrichment ratio is no more than 0.25.

Consider ATKN, for which the enrichment ratio was no more than 0.25.

Turning to IMIR, the enrichment ratio was no more than 0.25.

For the variant ANSN, the enrichment ratio was found to be 10.7.

For the variant ANCE, the enrichment ratio was 56.

In the case of PEWC, the enrichment ratio was no more than 0.25.

On to MGYQ, for which the enrichment ratio came to 14.

With VFDA, the enrichment ratio is no more than 0.25.

Take DIEQ: the enrichment ratio is no more than 0.25.

Turning to YIIW, the enrichment ratio was no more than 0.25.

For PEFL, the enrichment ratio was no more than 0.25.

As to TQEV, the enrichment ratio was 5.41.

Regarding NLAI, the enrichment ratio was no more than 0.25.

For FIRK, the enrichment ratio is no more than 0.25.

For PWQY, the enrichment ratio was no more than 0.25.

For SKRE, the enrichment ratio was no more than 0.25.

Regarding FPVS, the enrichment ratio was no more than 0.25.

In the case of SPHE, the enrichment ratio was no more than 0.25.

As to MGTI, the enrichment ratio stood at 12.5.

As to IPWM, the enrichment ratio is no more than 0.25.

Regarding RWKD, the enrichment ratio was no more than 0.25.

With DDQS, the enrichment ratio was no more than 0.25.

In the case of SPEL, the enrichment ratio was no more than 0.25.

In the case of DLTI, the enrichment ratio was no more than 0.25.

With HSHR, the enrichment ratio is no more than 0.25.

As to IQQG, the enrichment ratio was no more than 0.25.

For SWAT, the enrichment ratio is no more than 0.25.

For the variant TWDT, the enrichment ratio is no more than 0.25.

As to TVSL, the enrichment ratio came out at 14.4.

With LRWK, the enrichment ratio is no more than 0.25.

In the case of WMKM, the enrichment ratio is no more than 0.25.

As for YQFA, the enrichment ratio is no more than 0.25.

Take RLQP: the enrichment ratio is no more than 0.25.

On to GHKY, for which the enrichment ratio is no more than 0.25.

With RKFS, the enrichment ratio was no more than 0.25.

On to AEFL, for which the enrichment ratio is 9.72.

Turning to AYWR, the enrichment ratio was no more than 0.25.

NKLK: the enrichment ratio is no more than 0.25.

On to LSPK, for which the enrichment ratio is no more than 0.25.

Take GPQS: the enrichment ratio was no more than 0.25.

As for MMEA, the enrichment ratio was no more than 0.25.

As for QNPL, the enrichment ratio was no more than 0.25.

Consider DWSF, for which the enrichment ratio was no more than 0.25.

Regarding AAFD, the enrichment ratio is no more than 0.25.

As to DADV, the enrichment ratio is no more than 0.25.

Turning to NGQS, the enrichment ratio was no more than 0.25.

Consider GSID, for which the enrichment ratio is no more than 0.25.

Take KHCY: the enrichment ratio was no more than 0.25.

As for YPPH, the enrichment ratio was no more than 0.25.

With FYTD, the enrichment ratio is no more than 0.25.

For the variant QYWV, the enrichment ratio was no more than 0.25.

Take RRQS: the enrichment ratio is no more than 0.25.

Turning to NNTA, the enrichment ratio was no more than 0.25.

In the case of LECQ, the enrichment ratio came to 0.698.

With MENN, the enrichment ratio is no more than 0.25.

On to GEFQ, for which the enrichment ratio was no more than 0.25.

For the variant QNYS, the enrichment ratio is no more than 0.25.

Take FWDG: the enrichment ratio is no more than 0.25.

Take KKSD: the enrichment ratio is no more than 0.25.

Regarding QDMY, the enrichment ratio was no more than 0.25.

As for FGLC, the enrichment ratio was determined as 7.57.

In the case of GSCP, the enrichment ratio was no more than 0.25.

For PGMI, the enrichment ratio is no more than 0.25.

For NWDY, the enrichment ratio is no more than 0.25.

Take NFWF: the enrichment ratio is no more than 0.25.

Turning to LTKR, the enrichment ratio is no more than 0.25.

Take HDRW: the enrichment ratio is no more than 0.25.

As to RPTE, the enrichment ratio was no more than 0.25.

For the variant EVPM, the enrichment ratio is no more than 0.25.
